# According to PubChem BioAssay AID493208 (National Center for Advancing Translational Sciences (NCATS), 2011):
# Out of some 44,000 compounds screened, about 340 (0.77%) were called active. Inconclusive results (about 5%) are left out. Calls come from the whole dose curve; as a rule, active = well fitted inhibition curve with a large enough effect; inconclusive = small, poorly fitted or top-dose-only effect; inactive = flat fitted curve, though single readings scatter. This is one part of the list.
# Assay: Acumen qHTS Assay for Inhibitors of the mTORC1 Signaling Pathway in MEF (Tsc2-/-, p53-/-) Cells: Sytravon; note: nearly all actives have a fitted effect of over 50% in size;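 for activity change, negative = inhibition: plate controls were DMSO for no effect and rapamycin for full effect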
# Conditions: phospho-rpS6 immunofluorescence/PI, 24 h; series mostly up to 38.3 µM; activity change, negative = inhibition: at the top concentration
# Summary of the method: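 Compounds act on Tsc2-/-, p53-/- fibroblasts carrying an empty vector for 24 h before fixation and dual staining for phospho-S6 and DNA (propidium iodide). Values are percentages of cells above a rapamycin-defined pS6/PI threshold.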
# Potency is the fitted concentration of half-maximal effect.
SMILES,"activity change, negative = inhibition",Potency
COc1cccc(CNC(=O)C2CCCN(c3nnc(-n4c(C)ccc4C)s3)C2)c1 (configuration not stated),inactive: -2.03%,
O=C(NCC(c1cccnc1)N1CCN(Cc2ccccc2)CC1)C(=O)Nc1ccc(F)cc1 (configuration not stated),inactive: 6.03%,
CC(C)c1ccc(NC(=O)CN(C)S(=O)(=O)c2ccc3c(c2)n(C)c(=O)c(=O)n3C)cc1,inactive: -11.3%,
CCn1cnc2cc(NCc3ccc(N(C)C)cc3)ccc21,inactive: -2.37%,
CCC1CCCCN1C(=O)CSc1nc(-c2ccc(OC)cc2)cc(C(F)(F)F)n1 (configuration not stated),inactive: -5.55%,
CCc1ccc(CNC(=O)c2cnc3sc(N4CCCCCC4)nn3c2=O)cc1,inactive: -19.5%,
CCOc1ccc(C(=O)Nc2ccc3nc(SCC(=O)N4CCCC4)sc3c2)cc1,inactive: 2.81%,
Cc1ccc(SCC(=O)Nc2ccc3oc(-c4ccc(F)cc4)nc3c2)cc1,inactive: -7.3%,
COc1ccc(C(=O)NCc2nnc(SCC(=O)Nc3ccc(C)cc3)n2-c2ccccc2)cc1,inactive: -3.87%,
CCc1ccc(CNC(=O)c2ccc(NC(=O)N3CCSc4ncccc43)cc2)cc1,inactive: -1.92%,
CCc1nc2nc(C)cc(Nc3cc(Cl)ccc3OC)n2n1,inactive: -1.01%,
Cc1ccc(S(=O)(=O)N2CCC(c3nnc(-c4cccc(C)c4)o3)CC2)cc1,inactive: -2.43%,
CCOc1ccc(CNC(=O)CCc2c(C)nn(-c3ccc(N4CCOCC4)nn3)c2C)cc1,inactive: -13.2%,
CC(C)NC(=O)Cn1c(=O)nc(-c2ccccc2)c2ccccc21,inactive: 0%,
CCOc1ccc(CCNC(=O)c2ccc(C)c(-n3cnc4cccnc43)c2)cc1,inactive: -0.513%,
CCOc1ccc(Nc2cc(C)c(C#N)c3nc4ccccc4n23)cc1,inactive: 5.35%,
Cc1cccc(N(C)C(=O)CS(=O)(=O)c2cccc3nsnc23)c1,inactive: -1.41%,
COc1cccc(CNC(=O)c2ccc3c(Cl)c4c(nc3c2)CCCC4)c1,inactive: 3.36%,
Cc1ccc(C(C)C)c(OCc2ccc(C(=O)Nc3ccc(S(N)(=O)=O)cc3C)o2)c1,inactive: -1%,
O=C(OCc1ccco1)c1ccc2c(c1)N(Cc1ccc([N+](=O)[O-])cc1)C(=O)c1ccccc1S2,inactive: -9.3%,
Cc1nc(-n2nc(C)c(CCC(C)C)c2C)sc1C(=O)Nc1cccc(Cl)c1C,inactive: 0.257%,
CCOC(=O)c1c(NC(=O)c2ccccc2C)sc2c1CCCC2,inactive: 2.87%,
Oc1ccccc1-c1nc(/C=C/c2ccccc2)nn1-c1ccccc1,inactive: 4.16%,
O=C(CN1C(=O)COc2ccc(S(=O)(=O)N3CCCC3)cc21)NCCc1ccc(Cl)cc1,inactive: -17.8%,
O=c1[nH]c2ccc(NS(=O)(=O)c3ccc(F)cc3)cc2s1,inactive: 1.66%,

SMILES,"activity change, negative = inhibition",Potency
CCOc1ccc2nc(N3CCN(C(=O)C(C)C)CC3)sc2c1,inactive: -13.7%,
CC1CCN(c2nn3c(=O)c(C(=O)NCCc4ccc(Cl)cc4)cnc3s2)CC1,inactive: -3.74%,
Brc1ccc(-c2nc(N3CCN(c4ccccc4)CC3)c3ccccc3n2)cc1,inactive: 0%,
Cn1nnnc1SCCCNCc1ccc(-c2cccc(Cl)c2)o1,inactive: -18.5%,
Cc1ccc(-n2ccnc(NCCc3ccccc3)c2=O)cc1C,inactive: -10.1%,
COc1ccc(NC(=O)CSc2nnc(-c3nonc3NC(C)=O)n2C)cc1Cl,inactive: 1.18%,
Cc1ccccc1-n1c2nc(=O)[nH]c(=O)c-2cc2c(Cl)cccc21,inactive: -27.3%,
CCOC(=O)c1c(C)[nH]c(C)c1S(=O)(=O)N1CCCC(C(=O)Nc2ccc(OC)c(OC)c2)C1 (configuration not stated),inactive: -0.138%,
O=c1cc2nc(-c3ccccc3F)nc(SCc3ccc(Br)cc3)n2[nH]1,inactive: -4.79%,
Cc1cccc(Cn2c(SCc3ccc(C(=O)NCc4cccs4)cc3)nc3cccnc32)c1,inactive: -15.3%,
CC(C)c1ccc(NC(=O)c2cc(S(=O)(=O)NC3CCCCC3)ccc2F)cc1,inactive: -6.7%,
COCCCN1C(=O)c2[nH]nc(-c3ccccc3O)c2C1c1ccc(OC)cc1 (configuration not stated),inactive: -21.7%,
Cc1c(Cl)cccc1NC(=O)CCn1cnnn1,inactive: -1.84%,
CCN(CC)CCCNC(=O)C(C)n1nc(C)n2c(cc3occc32)c1=O (configuration not stated),inactive: -4.3%,
COC(=O)c1cc(C)nc2c1c(=O)nc(SCc1cccc(C(F)(F)F)c1)n2C1CC1,inactive: 0%,
COc1ccc(Cl)cc1NC(=O)COC(=O)CC(C)(C)CC1=NS(=O)(=O)c2ccccc2N1,inactive: -0.441%,
COC(=O)c1ccccc1NC(=O)CN(c1ccc(Cl)cc1)S(=O)(=O)c1ccc(OC)cc1,inactive: 3.1%,
COc1ccc(CCNC(=O)Cn2c(=O)nc(-c3ccccc3F)c3cc(Cl)ccc32)cc1OC,inactive: 7.89%,
O=C(C1CCC(CNS(=O)(=O)c2cccs2)CC1)N1CCN(c2ccc(Cl)cc2)CC1 (configuration not stated),inactive: -1.59%,
Cc1ccc2[nH]c(CSc3nnc(C)s3)cc(=O)c2c1,inactive: 4.44%,
CCOc1ccccc1NC(=O)C1CCN(S(=O)(=O)c2cccc3nonc23)CC1,inactive: -10.4%,
COc1ccc(N2CCN(c3ncnc4onc(C)c34)CC2)cc1,inactive: 5.84%,
Cc1cccc(N2CCN(C(=O)C3CCCN(C(=O)c4cc5sccc5n4C)C3)CC2)c1C (configuration not stated),inactive: -13%,
O=C(Nc1cc(-c2ccc(F)c(F)c2)no1)c1ccccc1F,inactive: -4.08%,
CC1=C(C(=O)Nc2ccc(F)cc2)C(c2ccc(N(C)C)cc2)NC(=O)N1 (configuration not stated),inactive: 4.44%,

SMILES,"activity change, negative = inhibition",Potency
CCC1CN(C(=O)C2CCN(S(=O)(=O)c3c(C)noc3/C=C/c3ccc(C)cc3)CC2)c2cc(C)ccc2O1 (configuration not stated),inactive: -0.667%,
CCOc1ccc(CCNC(=O)Cn2ccc3cc(S(=O)(=O)N4CCCCCC4)ccc32)cc1,inactive: -7.89%,
COc1ccc(NC(=O)C(=O)c2cc(C)n(-c3ccc(C)cc3)c2C)cc1Cl,inactive: 1.28%,
COCCNC(=O)CCn1c(=O)[nH]c2cc(OC)c(OC)cc2c1=O,inactive: 4.6%,
CC1CCCN(c2ncnc3c2nnn3C)C1 (configuration not stated),inactive: 1.71%,
CCC1CN(C(=O)N2CCC(C(=O)NCc3ccccc3F)CC2)c2ccccc2O1 (configuration not stated),inactive: 2.13%,
CCCOC(=O)c1cccc(Nc2nc(C(=O)OCC)nc3ccccc23)c1,inactive: -22.5%,
O=C(Nc1ccc(C(F)(F)F)cc1)C1(c2cccs2)CCOCC1,inactive: 0.819%,
COc1ccc(CNC(=O)Cc2ccc(NC(=O)N3CCCCc4ccccc43)cc2)cc1,inactive: -0.0444%,
CCOc1ccc(NC(=O)c2cc(S(=O)(=O)N3CCC(C)CC3)cn2C)cc1,inactive: -0.992%,
CC(Oc1ccccc1F)C(=O)NCC1(N2CCOCC2)CCCCC1 (configuration not stated),inactive: -19.7%,
Cc1ccc(NC(=O)c2c(C)oc3ncnc(N4CCCCC4)c23)c(C)c1,inactive: -2.08%,
Cc1cc(C)cc(NC(=O)c2cc(S(=O)(=O)N3CCCCC3)c[nH]2)c1,inactive: 2.05%,
COc1ccc(CNC(=O)C2CCN(c3nnc(C)c4c(C)n(-c5ccc(C)cc5)nc34)CC2)cc1,inactive: 0.966%,
CCc1ccc(NC(=O)c2sc3nc(C)cc(C)c3c2NC(=O)c2ccccc2)cc1,inactive: 4.26%,
Cc1ccc(-c2nn3c(C)nnc3c3ccccc23)cc1S(=O)(=O)NC(C)(C)CO,inactive: -5.16%,
COc1ccc(OC)c(-c2cc(C(=O)NCc3ccc(Cl)cc3)no2)c1,inactive: -5.48%,
Cc1ccccc1NC(=O)C1CCN(S(=O)(=O)c2cccc3nonc23)CC1,inactive: 1.61%,
O=C(Nc1nnc2n1CCS2)c1cc(C(F)(F)F)cc(C(F)(F)F)c1,inactive: 0.209%,
CCOc1ccc(N(C)S(=O)(=O)c2cc(-c3cnc(C)o3)ccc2OC)cc1,inactive: 2.3%,
COc1ccc(/C=C/C(=O)Nc2cccc(F)c2)cc1,inactive: 7.38%,
CN(C)S(=O)(=O)c1ccc2c(c1)N(CC(=O)N1CCC(C(N)=O)CC1)CCS2,inactive: -12.5%,
Cc1ccc(C)c(NC(=O)Cn2cc(S(=O)(=O)c3ccc(F)cc3)c(=O)c3cc(F)ccc32)c1,inactive: -3.85%,
Cn1c(=O)c2c(-c3ccccc3)n3c(c2n(C)c1=O)C(c1cccc([N+](=O)[O-])c1)Nc1ccccc1-3 (configuration not stated),inactive: -11%,
COc1ccc(-c2cc(C(F)(F)F)n3nc(C(=O)Nc4ccc(Cl)cc4C(F)(F)F)cc3n2)cc1OC,inactive: 1.08%,

SMILES,"activity change, negative = inhibition",Potency
Cc1cccc(C)c1NC(=O)Cn1c(=O)n(CCC(=O)NCc2ccc3c(c2)OCO3)c(=O)c2sccc21,inactive: -2.71%,
Cc1ccc(NC(=O)C2CCCN(c3nc4ccccc4s3)C2)c(C)c1 (configuration not stated),inactive: -3.69%,
COc1ccc(C(=O)N2CCN(CCc3ccccn3)CC2)cc1,inactive: -16.4%,
Cc1oc(-c2ccccc2)nc1Cn1c(=O)cc(-c2ccccc2)c2c(C)nn(C)c21,inactive: -7.84%,
CCN(C(=O)Cn1cnc2c1c(=O)n(C)c(=O)n2C)c1ccccc1C,inactive: 0.186%,
Cc1ccc(NC(=O)c2cnc(SCC(=O)N3CCCc4ccccc43)n(C)c2=O)cc1C,inactive: -1.02%,
COc1ccc(OCC(=O)Nc2ccc3c(c2)N(C)C(=O)c2ccccc2S3)cc1,inactive: -3.18%,
Cc1ccc2nc(Cl)c3cc(C(=O)N4CCCC(C)C4)sc3c2c1 (configuration not stated),inactive: -12.4%,
CCn1c(=O)c2cc(C(=O)NCCc3ccc(OC)c(OC)c3)sc2c2ccccc21,inactive: 0.637%,
COc1ccc(-c2cc(C(=O)Nc3c(C(=O)c4ccc(C)c(F)c4)oc4ccccc34)no2)cc1,inactive: 0.332%,
O=C(CCS(=O)(=O)c1nc(-c2ccc3c(c2)OCO3)cc(C(F)(F)F)n1)Nc1ccccc1C(F)(F)F,inactive: 3.9%,
COC(=O)Cn1c(SCCOc2ccccc2Cl)nc2ccccc21,inactive: -10.3%,
COC(=O)CSc1nnc(-c2cccc(O)c2)o1,inactive: -0.961%,
COc1ccc(C(C)=O)cc1CSc1nc(NCc2ccc(Cl)cc2)c2ccccc2n1,inactive: -8.03%,
COc1ccc(-c2cc(C(F)(F)F)n3nc(C(=O)Nc4cccc(Cl)c4Cl)cc3n2)cc1OC,inactive: -9.15%,
CC1=C(C(=O)Nc2ccc(C)cc2C)C(c2cc(Br)ccc2F)n2ncc(C(=O)Nc3ccc(C)cc3)c2N1 (configuration not stated),,active: 2.93 µM
CCOC(=O)c1cc(-c2ccc(C)cc2)n(CC(=O)Nc2cc(C)ccc2C)c1C,inactive: 0.274%,
CCc1ccccc1NC(=O)c1cc(S(=O)(=O)N2CCC(C)CC2)cn1C,inactive: 0%,
COc1ccccc1-c1nnc(C2CCN(S(=O)(=O)c3ccc(CC(C)C)cc3)CC2)o1,inactive: -12.3%,
Nc1c(C(=O)Nc2ccc(C(F)(F)F)cc2)sc2nc(-c3cccs3)ccc12,inactive: 1.17%,
O=C(CCc1ccccc1)NCc1ccc2c(c1)CCN2C(=O)c1ccccc1,inactive: -7.51%,
COc1cccc(-c2nc(SCc3cccc(Br)c3)n3[nH]c(=O)cc3n2)c1,inactive: 0%,
